# Counter-ions that a name gives are not always drawn. This is one part of the list.
# Tested on: Schistosoma mansoni schistosomula
# Assay: phenotypic hit in primary schistosomula screen (any phenotype vs DMSO control) (binary (1 = hit, 0 = no phenotype)); higher = active (phenotype induced)
# Conditions: 1 µM; time (d): 7
row,SMILES,phenotypic hit
1,Nc1nc(O)c2ncn([C@H]3C[C@H](O)[C@@H](CO)O3)c2n1 [deoxyguanosine],inactive: 0
2,Nc1nc(=O)c2c([nH]1)NCC(CNc1ccc(C(=O)N[C@@H](CCC(=O)O)C(=O)O)cc1)=N2 [dihydrofolic acid],inactive: 0
3,COc1ccc(CC(=O)c2ccc(O)cc2O)cc1 [ononetin],inactive: 0
4,COC1=C(OC)C(=O)C(C/C=C(\C)CC/C=C(\C)CC/C=C(\C)CC/C=C(\C)CC/C=C(\C)CC/C=C(\C)CC/C=C(\C)CC/C=C(\C)CC/C=C(\C)CCC=C(C)C)=C(C)C1=O [coenzyme q10],inactive: 0
5,CC(C)(C)NCC(O)c1ccc(O)c(CO)c1 (stereo unspecified) [Albuterol hemisulfate],inactive: 0
6,Cc1c(OCC(F)(F)F)ccnc1C[S+]([O-])c1nc2ccccc2[nH]1 (stereo unspecified) [lansoprazole],inactive: 0
7,Cn1c(=O)c2c(ncn2C)n(C)c1=O [Caffeine],inactive: 0
8,CCCC(CCC)C(=O)O [Valproic acid sodium],inactive: 0
9,CC(C)=CCc1c2c(c(O)c3c(=O)c(O)c(-c4ccccc4)oc13)C=CC(C)(C)O2 [sericetin],inactive: 0
10,Cc1onc(-c2ccccc2)c1C(=O)N[C@@H]1C(=O)N2[C@@H]1SC(C)(C)[C@@H]2C(=O)O [oxacillin sodium],inactive: 0
11,OCC(O)CN1CCN(c2ccccc2)CC1 (stereo unspecified) [dropropizine],inactive: 0
12,COc1cc2c(cc1OC)C(=O)OC2 [metameconine],inactive: 0
13,"CC[C@H](/C=C/[C@@H](C)[C@H]1CC[C@H]2[C@@H]3CCC4=CC(=O)CC[C@]4(C)[C@H]3CC[C@]12C)C(C)C [stigmasta-4,22-dien-3-one]",inactive: 0
14,COC1=CC(=O)C[C@@H](C)[C@]12Oc1c(Cl)c(OC)cc(OC)c1C2=O [griseofulvin],inactive: 0
15,CC1(C)O[C@H]2[C@H](O)C[C@](O)(C(N)=O)C[C@H]2O1 [quinamide isopropylidene],inactive: 0
16,COc1c2c(cc3occ(-c4ccc5c(c4)OCO5)c(=O)c13)OC(C)(C)C=C2 [methyl robustone],inactive: 0
17,COc1ccc(-c2coc3cc(O)cc(O)c3c2=O)cc1 [biochanin a],inactive: 0
18,CC1(C)S[C@@H]2[C@H](N3C(=O)[C@@H](c4ccccc4)NC3(C)C)C(=O)N2[C@H]1C(=O)O [hetacillin potassium],inactive: 0
19,CCOC(=O)C1=C(C)NC(C)=C(C(=O)OC)C1c1cccc([N+](=O)[O-])c1 (stereo unspecified) [Nitrendipine],inactive: 0
20,CC(=O)O[C@H]1C[C@@H](OC(C)=O)C(C)(C)C2CC(=O)[C@]3(C)C(CC[C@@]4(C)[C@H](C(=O)O)OC(=O)C5OC543)[C@]21C (stereo partly specified) [deacetoxy (7)-7-oxokhivorinic acid],inactive: 0
21,CC1(C)OCC(C2OC(=O)C(O)=C2O)O1 (stereo unspecified) [ascorbic acid acetonide],inactive: 0
22,NCC1OC(OC2C(N)CC(N)C(OC3OC(CO)C(O)C(N)C3O)C2O)C(N)C(O)C1O (stereo unspecified) [becanamycin sulfate],inactive: 0

row,SMILES,phenotypic hit
1,CCn1cc(C(=O)O)c(=O)c2cc(F)c(N3CCNCC3)cc21 [norfloxacin],inactive: 0
2,CC(=O)O[C@H]1CC[C@]2(C)[C@H]3C(=O)C=C4[C@@H]5[C@@H](C)[C@H](C)CC[C@]5(C(=O)O)CC[C@@]4(C)[C@]3(C)CC[C@H]2C1(C)C [11-oxoursolic acid acetate],inactive: 0
3,CC(C)=CCc1c(O)cc2occ(-c3ccc4c(c3)OCO4)c(=O)c2c1O [derrubone],inactive: 0
4,C=C1[C@H]2CC[C@@]3(C)[C@H](c4ccoc4)OC(=O)C[C@]13O[C@H]1C[C@H](O)C(C)(C)[C@H](CC(=O)OC)[C@]12C [3-deoxy-3beta-hydroxyangolensic acid methyl ester],inactive: 0
5,CC(CN1c2ccccc2Sc2ccccc21)N(C)C (stereo unspecified) [Promethazine hydrochloride],inactive: 0
6,NS(=O)(=O)c1cc2c(cc1C(F)(F)F)NC(Cc1ccccc1)NS2(=O)=O (stereo unspecified) [bendrofumethiazide],inactive: 0
7,CC(C)[C@@H]1CC[C@@H](C)C[C@H]1OC(=O)c1ccccc1 [menthyl benzoate],inactive: 0
8,COc1cc(N)c(Cl)cc1C(=O)NC1CCN(Cc2ccccc2)CC1 [clebopride maleate],inactive: 0
9,S=P(N1CC1)(N1CC1)N1CC1 [thiotepa],inactive: 0
10,CC(=O)O[C@H]1CC[C@]2(C)[C@H]3CC=C4[C@@H]5CC(C)(C)CC[C@]5(C(=O)O)CC[C@@]4(C)[C@]3(C)CC[C@H]2C1(C)C [oleanolic acid acetate],inactive: 0
11,Cc1cc(O)cc(=O)o1 [4-hydroxy-6-methylpyran-2-one],inactive: 0
12,"COC(=O)[C@@H]1OC(=O)C2OC23[C@@]1(C)CCC1[C@]2(C)C(C[C@@H](O)[C@]13C)C(C)(C)[C@H](OC(C)=O)C[C@@H]2OC(C)=O (stereo partly specified) [desacetyl (7)khivorinic acid, methyl ester]",inactive: 0
13,COc1c(O)cc2c(c1O)[C@@H]1O[C@H](CO)[C@@H](O)[C@H](O)[C@H]1OC2=O [bergenin],inactive: 0
14,CC(=O)Oc1cccc(C(=O)O)c1OC(C)=O [dipyrocetyl],inactive: 0
15,CC1OC1P(=O)(O)O (stereo unspecified) [fosphomycin],inactive: 0
16,CC(C)[C@H]1CC[C@H](C(=O)N[C@H](Cc2ccccc2)C(=O)O)CC1 [nateglinide],inactive: 0
17,COC(=O)/C(=C1/OC(=O)C(c2ccccc2)=C1O)c1ccccc1 [vulpinic acid],inactive: 0
18,"COc1cc(-c2coc3cc(OCc4ccccc4)c(OC)c(O)c3c2=O)cc(O)c1OC [irigenin, 7-benzyl ether]",inactive: 0
19,COc1ccccc1OCCNCC(O)COc1cccc2[nH]c3ccccc3c12 (stereo unspecified) [carvedilol],inactive: 0
20,CC1CCc2cc(F)cc3c(=O)c(C(=O)O)cn1c23 (stereo unspecified) [flumequine],inactive: 0
21,CCCCOc1ccc(OCCCN2CCOCC2)cc1 [pramoxine hydrochloride],inactive: 0
22,CCCOc1ccc2nc(NC(=O)OC)[nH]c2c1 [oxybendazole],inactive: 0

row,SMILES,phenotypic hit
1,CC(CCc1ccc(O)cc1)NCCc1ccc(O)c(O)c1 (stereo unspecified) [dobutamine hydrochloride],inactive: 0
2,CCOc1nc2cccc(C(=O)OC(C)OC(=O)OC3CCCCC3)c2n1Cc1ccc(-c2ccccc2-c2nn[nH]n2)cc1 (stereo unspecified) [candesartan cilextil],inactive: 0
3,Nc1ncnc2c1ncn2[C@H]1C[C@H](O)[C@@H](CO)O1 [deoxyadenosine],inactive: 0
4,Nc1ccc(S(N)(=O)=O)cc1 [sulfanilamide],inactive: 0
5,COc1ccc2c(c1)OCC(Cc1ccc(OC)c(OC)c1)C2=O (stereo unspecified) [deoxysappanone b trimethyl ether],inactive: 0
6,CC(=O)O[C@H](CC(=O)[O-])C[N+](C)(C)C [acetylcarnitine],inactive: 0
7,COc1ccc([C@H]2Oc3cc(OC)cc(OC)c3C[C@H]2O)cc1 [epiafzelechin trimethyl ether],inactive: 0
8,CC[C@]12CCCN3CCc4c(n(c5ccccc45)[C@@](O)(C(=O)OC)C1)[C@@H]32 [vincamine],inactive: 0
9,COc1ccc(CCN(C)CCCC(C#N)(c2ccc(OC)c(OC)c2)C(C)C)cc1OC (racemic) [(±)-Verapamil hydrochloride],active: 1
10,CCCCCCCCCCCCCCCC[N+](C)(C)C [cetrimonium bromide],active: 1
11,CNC1(C)C2CCC(C2)C1(C)C (stereo unspecified) [Mecamylamine hydrochloride],inactive: 0
12,C[C@@H]1CC2C3C[C@H](F)C4=CC(=O)C=C[C@]4(C)[C@@]3(F)[C@@H](O)C[C@]2(C)[C@@]1(O)C(=O)COC(=O)C(C)(C)C (stereo partly specified) [flumethazone pivalate],inactive: 0
13,Nc1nccs1 [aminothiazole],inactive: 0
14,CC(=O)OC1CC(OC(C)=O)C2(C)C(CC(OC(C)=O)C3(C)C4=CC(=O)OC(=O)C4(C)CCC32)C1(C)C (stereo unspecified) [desfuranyl-17-oxokhivorin],active: 1
15,CCCc1nc(C(C)(C)O)c(C(=O)OCc2oc(=O)oc2C)n1Cc1ccc(-c2ccccc2-c2nnn[nH]2)cc1 [olmesartan medoxomil],inactive: 0
16,Cn1c(=O)c2c(ncn2CC(O)CO)n(C)c1=O (stereo unspecified) [dyphylline],inactive: 0
17,COc1cc(C)c2c(=O)cc(-c3ccccc3)oc2c1 [methoxyvone],inactive: 0
18,CC1=C(C(=O)O)N2C(=O)[C@@H](NC(=O)[C@H](N)c3ccc(O)cc3)[C@H]2SC1 [cefadroxil],inactive: 0
19,CC1=CCCC(C)=CCC(C)(C)C=CC1 [humulene (alpha)],inactive: 0
20,OC[C@H]1O[C@@H](O[C@H]2[C@H](O)[C@@H](O)[C@@H](O)O[C@@H]2CO)[C@H](O)[C@@H](O)[C@@H]1O [cellobiose (d[+])],inactive: 0
21,Oc1cc(O)c2c(c1)O[C@H](c1cc(O)c(O)c(O)c1)[C@H](O)[C@H]2c1c(O)cc(O)c2c1O[C@H](c1cc(O)c(O)c(O)c1)[C@H](O)[C@H]2c1c(O)cc(O)c2c1O[C@H](c1cc(O)c(O)c(O)c1)[C@H](O)C2 [katacine],inactive: 0
22,C[C@H]1CC[C@@H](C(C)(C)O)CC2=C1CC[C@@H]2C [guaiol],inactive: 0
